Each structure is given as a SMILES string. Among all 45,000 compounds or so, about 200 (0.44%) were called active. Another 7% or so got no clear call; they are omitted. Calls follow the shape of the dose curve; as a rule, active = well fitted activation curve with a large enough effect; inconclusive = small, poorly fitted or top-dose-only effect; inactive = no such curve, though single readings can be large or run the other way. This is one part of the list.

This note sets out measurements from PubChem BioAssay AID1347073 (National Center for Advancing Translational Sciences (NCATS), 2019).

A short description of the test: qHTS of TDP-43 Inhibitors: NCGC Sytravon Library Screen. Also: 0% is about no effect; nearly all actives have a fitted effect of over 55% in size. The note with it: yeast TDP-43 toxicity rescue, BacTiter-Glo growth, 24 h; series mostly up to 46.1 µM; growth rescue (activation): at the top concentration. The essentials:
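TDP-43-expressing yeast, pregrown in raffinose, seeded at OD600 0.02 in galactose medium with compound for 24 hr at 30 deg C. Growth read by BacTiter-Glo luminescence, so rescue of toxicity appears as activation.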
For the compound `O=C(Nc1ccccc1)N(C1=NCCC1)c1ccc(OC(F)F)cc1`, the “growth rescue (activation)” value was inactive: -33.9%. On to `CC(NC(=O)COC(=O)[C@@H]1CCCN1S(=O)(=O)c1ccccc1F)C12CC3CC(CC(C3)C1)C2` (some centres undefined), for which the “growth rescue (activation)” value was inactive: 10.8%. With `O=C(NC1CC1)C1CC(=O)N(c2ccccc2)C1` (centres undefined), the “growth rescue (activation)” value was inactive: 11.7%.

Take `CCC(C)(c1nnnn1-c1c(C)cccc1C)N(N=O)c1ccccc1Cl` (centres undefined): the “growth rescue (activation)” value was inactive: 28.5%. `COCCNC(=O)C1(C)CCCN(C(=O)c2ccc(OC)cc2OC)C1` (centres undefined): the “growth rescue (activation)” value was inactive: -3.99%.

As to `O=C(C[n+]1cccc(CNC(=O)c2ccc(OC(F)F)cc2)c1)Nc1ccc(F)cc1`, the “growth rescue (activation)” value is inactive: 0.854%. On to `CN1CCc2c(sc(/N=C/c3cc(Cl)ccc3O)c2C#N)C1`, for which the “growth rescue (activation)” value was inactive: -9.11%. For `COc1cccc(NC(=O)CN2C(=O)NC(c3ccccc3)(c3ccccc3)C2=O)c1` the value was inactive: -21.3%; for `CCCNC(=O)OCCC12CC3CC(CC(C3)C1)C2`, inactive: 20%; for `CCOc1cc(C(=S)N2CCOCC2)ccc1OS(=O)(=O)c1ccc(C)cc1`, inactive: 31%. For the compound `CCOC(=O)Nc1ccc2c(CN3C(=O)NC4(CCCC4)C3=O)cc(=O)oc2c1`, the “growth rescue (activation)” value was inactive: -4.57%. The figure for `COC(=O)C1=CN(C(C)c2ccccc2)C=C(C(=O)OC)C1c1cc(OC)c(OC)c(OC)c1` (centres undefined) is inactive: 1.18%; for `COc1c(C)cc(C(O)c2ncc(-c3ccccc3)[nH]2)cc1C` (centres undefined) it is inactive: 1.16%; for `C=CCNC(=S)N1CCN(c2cc3c(cc2F)c(=O)c(C(=O)O)cn3CC)CC1` it is inactive: 20.7%. For `c1coc(-c2nnc(-c3ccco3)nn2)c1`, the “growth rescue (activation)” value is inactive: 26.8%. Regarding `O=C(NCCN1CCOCC1)c1ccc2c(c1)N(Cc1ccccc1F)C(=O)CS2`, the “growth rescue (activation)” value is inactive: 12.1%. In the case of `O=C(CSc1nncn1-c1cccnc1)Nc1ccccc1[N+](=O)[O-]`, the “growth rescue (activation)” value was inactive: -12.6%. As for `COc1cccc(/C=N/NC(=O)c2ccoc2C)c1`, the “growth rescue (activation)” value is inactive: 4.1%. Consider `CC1C(=O)OC2C1CCC1(C)CCC(=O)C(C)C21` (centres undefined), for which the “growth rescue (activation)” value is inactive: -5.49%. Consider `COc1ccc(S(=O)(=O)N2CCN(S(=O)(=O)c3ccc(C(F)(F)F)cc3)CC2)cc1C`, for which the “growth rescue (activation)” value was inactive: -3.19%. Take `Oc1c(Cl)cc(Cl)cc1/C=N/Nc1ncc(Br)cn1`: the “growth rescue (activation)” value was inactive: -31.2%.

As to `CCOC(=O)C1CCN(C(=O)c2ccc3c(SCC(=O)O)c4c(nc3c2)CCCC4)CC1`, the “growth rescue (activation)” value was inactive: -7.45%.

Consider `Fc1ccc(-c2ccc(CNCc3ccccn3)o2)cc1Cl`, for which the “growth rescue (activation)” value was inactive: 10.2%. In the case of `COC(=O)c1c(-c2cccs2)csc1NC(=O)COc1ccccc1`, the “growth rescue (activation)” value is inactive: -17.3%. With `CN(C)S(=O)(=O)c1cccc(C(=O)OCC(=O)NCc2ccc3c(c2)OCO3)c1`, the “growth rescue (activation)” value is inactive: 13.4%. For `Cc1cccc(-n2nc([N+](=O)[O-])c(N3CCN(C(=O)c4ccco4)CC3)[n+]2[O-])c1` the value was inactive: 14.1%; for `CCc1nnc(NC(=O)CN2C(=O)CCC2=O)s1`, inactive: -22.3%. Regarding `CCC(C)(C)n1nnnc1C(c1ccc2ncccc2c1)N1CCN(c2ccc(O)cc2)CC1` (centres undefined), the “growth rescue (activation)” value is inactive: 1.93%.

Consider `Cn1c(CCN2CCCCC2)nc2cc(NC(=O)Nc3ccccc3)ccc21`, for which the “growth rescue (activation)” value is inactive: 8.95%. Take `C/C(=N\Nc1nc2ccccc2[nH]1)c1cccs1`: the “growth rescue (activation)” value was inactive: 20.4%.

Take `Cc1cc(=O)[nH]c(N/N=C/c2ccc(O)c(O)c2)n1`: the “growth rescue (activation)” value is inactive: 9.78%. In the case of `Cc1cc(C)cc(NC(=S)N=Nc2c(O)n(C)c3ccc(S(=O)(=O)N4CCOCC4)cc23)c1`, the “growth rescue (activation)” value was inactive: 13.9%.

With `O=c1[nH]c(C2CCN(S(=O)(=O)c3ccc4c(c3)OCCO4)CC2)nc2c1nnn2Cc1ccc(F)cc1`, the “growth rescue (activation)” value is inactive: 7.35%. Take `O=C(CSc1nc2ncc(Br)cc2[nH]1)c1ccc([N+](=O)[O-])cc1`: the “growth rescue (activation)” value is inactive: -27.3%. As for `COC(=O)c1c(C)[nH]c(O)c1C=Nc1ccc(C(C)C)cc1`, the “growth rescue (activation)” value was inactive: 11.5%. As to `Cc1ccc(NC(=O)CCCN2C(=O)COc3ccc(C)cc32)c(C)c1`, the “growth rescue (activation)” value was inactive: 26.2%.

As for `Cc1ccc(/C=C/C(=O)NCc2ccccn2)o1`, the “growth rescue (activation)” value is inactive: 11.4%. The figure for `Cc1cccc(C)c1NC(=O)CNC(=O)c1ccc2c(c1)NC(=O)CS2` is inactive: 6.08%; for `O=C(c1cc(S(=O)(=O)N2CCOCC2)ccc1F)N1CCCc2ccccc21` it is inactive: 14.3%. Consider `Clc1ccccc1-c1nnc(CNC2CC2)o1`, for which the “growth rescue (activation)” value was inactive: 9.27%. For `Cc1ccc(S(=O)(=O)NCC(=O)N2CCOCCOCCOCC2)cc1` the value was inactive: 14.7%. As to `COc1cc(OC)cc(C(=O)Nc2c(C)nn(-c3ccccc3)c2C)c1`, the “growth rescue (activation)” value is inactive: -17.1%. Take `O=C(O)c1ccc(N=Nc2c(O)[nH]c3ccccc23)cc1`: the “growth rescue (activation)” value was inactive: 1.14%. As to `CC(NC(=O)COc1ncnc2cc([N+](=O)[O-])ccc12)c1ccccc1` (centres undefined), the “growth rescue (activation)” value is inactive: -3.31%. `CC(=O)NC(c1ccc([N+](=O)[O-])cc1)c1c(O)ccc2ccccc12` (centres undefined): the “growth rescue (activation)” value is inactive: -0.747%.

Turning to `Nc1nc(Nc2ccccc2F)nc(N2CCCC2)c1[N+](=O)[O-]`, the “growth rescue (activation)” value was inactive: 12.9%. `CCOc1ccc2nc(NC(=O)c3ccccn3)sc2c1`: the “growth rescue (activation)” value was inactive: 24.2%.

As to `COc1ccc(NC(=O)C2CC(c3ccccc3O)=NO2)cc1OC` (centres undefined), the “growth rescue (activation)” value is inactive: -2.71%. For the compound `COc1cccc(C=Nc2ccc3c(c2)OCCO3)c1O`, the “growth rescue (activation)” value is inactive: -1.57%. For the compound `CC1CCCN(C(=O)COC(=O)Cc2ccc(Cl)cc2)C1` (centres undefined), the “growth rescue (activation)” value is inactive: -2.09%.

As to `O=C(OCC(=O)N1CCOCC1)c1ccccc1OCc1ccc(Cl)cc1`, the “growth rescue (activation)” value is inactive: 13.9%. Take `O=C(O)c1cccnc1Sc1ncnc2sc3c(c12)CCC3`: the “growth rescue (activation)” value was inactive: 28%. For `CC(C)c1ccc(/C=C/C(=O)NC2CCCCC2)cc1` the value was inactive: 3.31%; for `CCN(CC)CCN1C(=O)C(O)=C(C(C)=O)C1c1ccccc1[N+](=O)[O-]` (centres undefined), inactive: 14.7%.
